# Measurements from the RNAGym collection of RNA variant scans (doi:10.7554/elife.90254).
# The source gives no read counts; variants with many changes may rest on few reads.
# B1: OR4K15 (parent)
# chain: GUUAACGGUCAUAGGCCAUGGAAACUAGGAGCACCAUUUCGCUGCCAGUGAAGAAAUGAACAAAGAAAAUCUGGGCCAGGCAGGCAUCAAAAGAAAUAGUCUUGCGCUCAACCAGAAAGUCUGUAAUCAUUUUAAGGGUA
# Variants of: B1
# Experiment: self-cleavage, relative activity (ratio to wild type); higher = more cleavage; in vitro, sequencing; the parent is a self-cleaving ribozyme
row,Variant,self-cleavage
1,U43A A52C G75A,0.21
2,A18U A91G A96G,1.02
3,U2C A27U G74A A111C,0.02
4,A30G A36G U100C U122A A126G,1.74
5,A11G U100C A125G,1.03
6,U26C U122C A125G,0.28
7,A23G A36G G44A U130C,0.44
8,A22U A56G U87C,0.48
9,A47G G58A A86G U102C,1.27
10,A4U U38C U133C,1.5
11,A27G A47G A59G,0.73
12,U19A A89G A94G,0.66
13,U87A A114C U122C,0
14,A86G A90G G137U,0.87
15,U72C A89G A111G,0.02
16,U37C U70A A96G U102C C105U U122G,0.44
17,A27U A89C U120A U122C,1.38
18,A59G A64G U87C,0.95
19,A13G U38C A91G,1.15
20,A33U A36G C112U A129U,0
21,U2C A67U U87C,1.58
22,A5G A30G C40A A60C,1.12
23,U39C A56G A60G,0.95
24,A64G A96G A129G,1.33

row,Variant,self-cleavage
1,G7U U9G A89G,1.78
2,A5G C32U A64U A67C,0.72
3,A11G U38C A82U A95C,0.1
4,A54G U108A U130C,0.01
5,G7A A22U U87C A118U,0.64
6,A62G A96G U97C,0.47
7,C6U G74C G75A,0.26
8,U9C A11G U49A,0.84
9,A92G A117G U132A,1.14
10,U38C A64U A78G,0.6
11,A54U A62G A126G,1.48
12,A18G A96G U139C,0.58
13,U9C A11U U26G U37C A96G C101U,0.44
14,U12A A23G U38C U100G A110C,0.55
15,A18G A33G A52U A55G A78U,0.11
16,A67C U130C U131C,1.72
17,U9C A92G A118G,0.44
18,A5G A63G G73A,0.2
19,U38C G48C U49C A55G U87C,0.78
20,U19A C25U A67G U131C A140G,0.49
21,A4G U38C A67G A68C U102C,0.27
22,A52U A98U A129G,2.92
23,A22G A24G A96G A134U,0.34
24,A24C U38C U97A,1.72

row,Variant,self-cleavage
1,U26C A60G A82G,0.37
2,A4G A23G A59G A82G,0.73
3,U43C A60G A69G,2.01
4,A11C A18G A69G,1.45
5,A69G A95G U102C A111U,0.1
6,A56U A64U A69U U103C U108C,0.02
7,U38C A56G U130C,1.85
8,A69G A90G G93A U102G,0.21
9,A36U U122C A140G,1.7
10,A11U U37C U39C A56G U133C A134U,2.11
11,U2A A33G A135G,1.37
12,A22U A52G A82G C107A,0.04
13,A22U A52U A98G,0.1
14,U9C U49G U108C,0.03
15,U26C A27G A47G A95G,1.18
16,A23G U38A A47G A56G A91U,0.52
17,A23U A55G A67G,2.06
18,A11G A67G U130G,1.02
19,A22U A52U U100C,2.96
20,A23G A68U A95G C105G A116U U130C,0.02
21,A11G A27U A62G,0.45
22,U19C A60U A78G U100C A116G,0.17
23,A23U A27G A33C A47G A60G A66G A89G U120C,0.43
24,U43A A69G U120C,0.5

row,Variant,self-cleavage
1,U38A A91G U122A,0.95
2,A24G U49A A95G,0.18
3,U9C A89G A94G,1.2
4,C10U A92G A96G,1.93
5,A82G A114G U131A A140G,0.04
6,U2A U100C U132C,1.16
7,A23G A92G A110G A117G U132C,0.13
8,A62G A67G U97C,1.14
9,U12C A86U U127C,0.85
10,A5G A47G A60G U72G,0.08
11,G7A A54G A67G U72C,0.22
12,A5G A64G U87C A118G U122A,1.38
13,A22G A82U A86G A114G,0.07
14,A18U A89G U103C U132C,0.1
15,U39C U43A U102A,1.08
16,G75A A82U A89C,0.18
17,A51G A54G A91G,1.98
18,C35U U38C A59G A86C U120C,0.45
19,U38C A78G U132A,0.36
20,A59G A86G A134U,1.35
21,A78U A125G A140G,0.03
22,U49A A56C A129G,1.02
23,A54G A67G A69G,1.26
24,A27G A55G U57C,0.94

row,Variant,self-cleavage
1,A24U A30U A51G A60G,1.47
2,A30U U39C U49C A60G U132C,1.01
3,A30U U39A A64G A111G A116G,0.01
4,A23G U49G A54G A82U U108C U122C U127A,0.03
5,A27U A51G A59U G79U A90G U124A,0.12
6,C6A A47G A86G,0.37
7,A22G A90G A91G G119A U127C,0.79
8,A23G A92U U100C,1
9,U43C A64G A111C,0.02
10,U9A A23U A98G U100C U139C,1.28
11,A63G G79A A95G,0.05
12,U12C A18G G137A,0.94
13,U43C A92G A126G,0.34
14,U49A A52G A63G,1.78
15,A13U A56G A92G A116U U122A,0.05
16,A89U A95U U103C,1.47
17,U9C A22G C42A,2.07
18,A56G A60G A95G A134G,1.63
19,U26C A30U U131C,0.91
20,U26C A54G A118G,1.9
21,G44A A55U A64C U133A,1.51
22,A22G U43C A78G,0.34
23,A23G A52G A117U,0.53
24,A51U A111G A116G U130A,0

row,Variant,self-cleavage
1,A22G U72A U127C,0.06
2,U9C A60G A66G A94G U108A,0.03
3,A51G A117G A126G,1.5
4,A30G U97A A129U,0.47
5,A24G A30U U100C,1.32
6,U12A G15A U102C,2.22
7,A18G G104A U120C,0.02
8,A63U A117G U131C,1.64
9,A55G A56G G74A,0.21
10,A27U A92G G106A,0.02
11,A11G A55G U124C,1.22
12,U9C U12A A64G A78G A91G,0.21
13,A27G A68G A82G U131C,0.38
14,A23G U26A A86G A92G U127A,1.61
15,A22G A56G A78U U130C,0.18
16,A23G U38C A91G,0.53
17,A4G U49A A63G,1.54
18,A5U A11G A55G A98U U108C A114U,0.34
19,A22C A33G A56G U70C,0.19
20,A27U U49C A51U A66U A96G U132C,1.55
21,A55G U57A A92G G123A,1.13
22,A63G A129G A134G,1.35
23,A4G A56G A59G A69G A134G,0.69
24,U37C U49C U87A,1.29

row,Variant,self-cleavage
1,G80C A89G U108C,0.08
2,U39C U70A U72C G75A A117G,0.12
3,A5G A67G U70A,1.35
4,A51G A63G A134G,2.1
5,A24G A52G U72C,0.35
6,G29A A60G C112A U122C,0.03
7,A23U A64G A86U A117U,1.02
8,U3C A23G A54G,0.36
9,G1U A13G A140G,1.43
10,A24G G74A A91U,0.23
11,A52G U102C A111G A140G,0.02
12,A11G A47U A116G,0.48
13,A18G A33U A55G A66G,1.05
14,U9A A23U C32U A94G,1.02
15,A27G U57C A140G,1.21
16,A22G A23G U37C,0.92
17,A23U U103C U133C,1.36
18,U12C A23G U127A,1.29
19,U39C U87C U122C,1.69
20,U43C A116G U127A,1.01
21,A5G A13U U57G U122C,1.07
22,A30G A52U A78G,0.29
23,A60G A94G G136C,1.41
